Measurements as given in PubChem BioAssay (NCI).
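Protocol summary: plate cells (96-well), add compound at 5 concentrations, incubate 48 h, interpolate endpoints linearly. GI50 = concentration required for 50% inhibition of growth. TGI is the concentration that stops growth completely.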

Test system: NCI-H322M lung
Experiment: NCI-60 cell line screen, 48 h

| Compound | GI50 [nM] | TGI [nM] |
| --- | --- | --- |
| OC1CCN(CCCOc2c3ccccc3nc3c2oc2ccccc23)CC1 | 2230 | 10600 |
| COc1ccc2[nH]cc(/C=N/Nc3ccnc4cc(Cl)ccc34)c2c1 | 1560 | 2910 |
